The other results are listed elsewhere or left out. The full chains were built here from the parent and the listed change. Values near 0.05 are background.
B1: TEV protease; numbered along this chain (parent)
chain: MGESLFKGPRDYNPISSSICHLTNESDGHTTSLYGIGFGPFIITNKHLFRRNNGTLVVQSLHGVFKVKDTTTLQQHLVDGRDMIIIRMPKDFPPFPQKLKFREPQREERICLVTTNFQTKSMSSMVSDTSCTFPSGDGIFWKHWIQTKDGQCGSPLVSTRDGFIVGIHSASNFTNTNNYFTSVPKNFMELLTNQEAQQWVSGWRLNADSVLWGGHKVFMVKPEEPFQPVKEATQL

Variants of: B1
Experiment: raw area under fraction-flipped curve 0-4 h after induction (AUC4h, not background-subtracted), DNA-recorder readout of cleavage of the substrate (dimensionless); higher = more cleavage of the substrate by the protease variant
Details: temperature: 34 °C; time window: 0-4 h after rhamnose induction
Method: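 In vivo DNA recorder in E. coli TOP10(DE3) ΔrhaA at 34 °C. Each TEVp single-site mutant (parent TEVp 0) is paired with a single-site variant of the 7-mer TEVs (canonical ENLYFQ|S). The substrate sits between flexible linkers in a Bxb1-sfGFP-TEVs-SsrA fusion, so cleavage stabilises Bxb1 and speeds flipping of a recombination array, read by NGS. The value is the raw area under the fraction-flipped curve over 0-4 h after rhamnose induction (AUC4h), with ≥20 reads per time point. It is not background-subtracted; inactive controls average about 0.047.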
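Further: Bxb1 expression induced with 0.2% (w/v) L-rhamnose at OD600 near 0.5, cultures sampled hourly, flipped fraction per protease–substrate barcode pair counted by paired-end Illumina sequencing.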

Variant	area with substrate ENLYCQS	area with substrate ENLYDQS	area with substrate ENLYEQS	area with substrate ENLYIQS	area with substrate ENLYMQS	area with substrate ENLYNQS	area with substrate ENLYPQS	area with substrate ENLYQQS	area with substrate ENLYRQS	area with substrate ENLYSQS	area with substrate ENLYVQS	area with substrate ENLYAQS	area with substrate ENLYGQS	area with substrate ENLYHQS	area with substrate ENLYKQS	area with substrate ENLYTQS	area with substrate ENLYWQS	area with substrate ENLYLQS	area with substrate ENLYYQS
D27I	0.095	0.0528	0.0598	0.122	0.0481	0.0561	0.0639	0.0722	0.0575	0.0882	0.1								
S201M	0.0664	0.0618	0.0701	0.108	0.0824	0.0605	0.0632		0.0549	0.0922	0.117	0.0823	0.0914	0.0843	0.0587	0.0743	0.081		
G213E			0.0421					0.0719	0.059		0.0396	0.058	0.0674	0.0595			0.0707		
N53K	0.0755	0.0601	0.0641	0.0049		0.0577	0.0625				0.0715		0.0629	0.058	0.0607	0.0726		0.0747	
N53P	0.0659	0.0516	0.0694	0.0901	0.103	0.0609			0.0486	0.0753	0.0858		0.0452				0.0827	0.0532	0.0744
L191R	0.051	0.0643	0.0615	0.128	0.0411	0.0497			0.0632	0.0599	0.0588	0.0681		0.0582	0.0375	0.05	0.0513		
L191N	0.0286	0.0521	0.0558		0.0422	0.0623	0.0476	0.054	0.0488	0.0483	0.0654	0.0667	0.0461		0.0617		0.0821	0.047	0.039
L211E	0.0991	0.0816			0.103	0.048	0.0912	0.0688	0.0759			0.0969	0.0601	0.0681	0.0385		0.0951		
L211G			0.063	0.0964	0.0686	0.0547	0.0684	0.0865		0.0448		0.0773	0.0609	0.0722	0.0489		0.0705	0.0768	
P14F	0.0868	0.0493	0.0704		0.0848	0.0673	0.0701	0.0755			0.107			0.0709	0.0592	0.0728	0.0626	0.036	0.0455
L5G	0.0983		0.0704		0.0753	0.0752	0.0485		0.0646	0.0759	0.121			0.108	0.0664		0.0805		0.0759
G214T	0.0731		0.0819		0.0729	0.0618		0.0432		0.0473	0.0537	0.0745		0.0706	0.0652				0.0525
G214I			0.0547	0.0904					0.0546			0.0575					0.0546		
T55W	0.0934	0.0793	0.0664	0.12		0.0709	0.0738			0.054	0.133		0.0658	0.0703	0.0602		0.074		0.0686
T55P	0.0729	0.0372	0.0643			0.0498	0.0672	0.0699		0.0559	0.15		0.0785	0.0644	0.0723				0.0653
L235V		0.0593	0.0581		0.0675					0.0694		0.0547				0.0644	0.0754		0.0527
V57H	0.0601		0.0659	0.146	0.0812	0.0544	0.0628	0.0576			0.13			0.0691		0.0653	0.0599	0.0861	
V57F	0.0756	0.0492	0.0619	0.126	0.103			0.0577	0.0675	0.0768			0.0571	0.0691	0.0623	0.123			0.0674
W203H	0.055	0.0501	0.0613		0.075	0.073	0.0624	0.0599		0.0381	0.0521	0.0456	0.0654	0.0613	0.0673	0.0512	0.0612	0.0652	
W203T		0.0565		0.0604	0.0787	0.0607	0.0565	0.0699	0.0568		0.078	0.0603		0.059	0.0755	0.0655	0.036	0.0569	
Q194D	0.0839		0.0682		0.0849	0.0764	0.0727		0.0539		0.141	0.085		0.0699			0.0916	0.105	0.0462
K46G	0.0695	0.0627	0.0642			0.0593	0.0661	0.0776	0.0514	0.0627	0.0852			0.064	0.0494	0.0653		0.0734	
F41E	0.035	0.0501		0.0541		0.0423			0.0484					0.0564	0.05	0.0256		0.034	
V220F			0.0648	0.113	0.0854	0.0718	0.075	0.063	0.0461	0.071		0.078	0.0692	0.0586	0.0617		0.0774		0.0567
V220K			0.0695	0.126	0.082	0.0614	0.0832	0.0664	0.0607			0.0817	0.053	0.063	0.0213	0.11	0.0921		0.06
E195W			0.0714						0.0622	0.0809	0.0834	0.0692	0.0631		0.069		0.0814		
E195Q		0.0673			0.0825	0.0757	0.0729					0.0744	0.0497	0.0736			0.0972		0.0806
V217M		0.067	0.0583		0.0669	0.0633	0.0689		0.0554		0.0765	0.0588		0.0622	0.0556	0.105			
F49T	0.0528	0.0582	0.0698	0.0564	0.096	0.0575	0.0655	0.0487	0.0504		0.0567		0.0597	0.0393	0.0596				
